According to PubChem BioAssay AID526 (National Center for Advancing Translational Sciences (NCATS), 2006):
The campaign covered roughly 67,000 compounds. Fewer than 10 were called active. Inconclusive results, whose numbers are uncertain, are shown with a selection of clear calls. Calls come from the whole dose curve; as a rule, active = well fitted activation curve with a large enough effect (not every such curve was filed as active); inconclusive = small, poorly fitted or top-dose-only effect, or another doubt; inactive = no such curve, though single readings can be large or run the other way.

Assay: Ubiquitin-GFP Assay
Conditions: Ubiquitin-GFP reporter cells, proteasome inhibition, GFP fluorescence; activation (GFP accumulation): at 45.9 µM (top of the series), untreated = 0%, 10 µM MG-132 = 100% unless noted
Procedure, shortened: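 U2OS cells expressing ubiquitin(G76V)-GFP, seeded overnight in 0.5% FBS medium, then treated 4 hr at 37 C across 46 uM to 2.9 nM. GFP-positive cells counted by laser cytometry (488 ex/515 em); %activity scaled between basal and 10 uM MG-132.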
Potency is the fitted concentration of half-maximal effect.

| SMILES | activation (GFP accumulation) | Potency |
| --- | --- | --- |
| COc1ccc(NC(=O)N2CC[C@@]3(CCCNC3)C2)cc1 | inactive: -2.04% | – |
| O=C(Nc1ccc(S(=O)(=O)N2CCCCC2)cc1)c1cnccn1 | inconclusive: 32.5% [activator] | – |
| O=C(O)C1(C(=O)O)CCN(S(=O)(=O)c2ccccc2)CC1 | inactive: 2.42% [at 9.17 µM, untreated = 0%, 10 µM MG-132 = 100%] | – |
| N#CCCn1c(=O)c(-c2ccc(Cl)cc2)nc2cnc(Nc3ccccc3)nc21 | inconclusive: 284% [activator] | – |
| CCCCS(=O)(=O)/C=C\C=C/S(=O)(=O)CCCC | inconclusive: -14.3% [activator] | – |
| C=C(c1ccc(O)cc1)c1ccc(O)cc1 | inactive: 10% | – |
| O=C(CSc1nnc(Cc2csc(Nc3cccc(Cl)c3)n2)o1)N1CCc2ccccc21 | inactive: -5.3% | – |
| Cc1cc2cc(CCNS(C)(=O)=O)c(=O)[nH]c2cc1C | inconclusive: 32.3% [activator] | – |
| Cc1oc2ccc(OCC(N)=O)cc2c1C(=O)OC(C)C | inconclusive: 34.1% [activator] | – |
| O=c1[nH]c2ccc(Cl)cc2c(-c2ccccc2)c1CN1CCOCC1 | inactive: -2.66% | – |
| CC(c1ccco1)N(C(=O)COc1ccc(Cl)cc1)c1ccccn1 (stereo unspecified) | inactive: -0.897% | – |
| O=C1c2cccnc2C(=O)N1C1CCCCC1 | inconclusive: 40.4% [activator] | – |
| CCN(CC)c1nc2ccccc2nc1C(C#N)C(=O)NCCc1ccccc1 (stereo unspecified) | inconclusive: 337% [activator] | – |
| COCCn1c(=O)c(-c2cccc(C#N)c2)nc2cnc(Nc3ccccc3)nc21 | inconclusive: 80.9% [activator] | – |
| COCCn1c(=O)c(CCc2ccccc2)nc2cnc(N3CCOCC3)nc21 | inactive: 1.7% | – |
| O=C(Nc1ccccc1)NC1CCN(Cc2nnnn2C2CCCCC2)CC1 | inactive: -5.17% | – |
| Cc1ccc(NC(=O)C2CC=CCC2C(=O)N2CCCCC2)cc1 (stereo unspecified) | inactive: -3.39% | – |
| CCN(CC)c1ccc2cc(-c3nc4ccccc4[nH]3)c(=O)oc2c1 | – | active: 501 nM |
| O=C(O)c1cc(=O)c2ccc(Cl)cc2[nH]1 | inactive | – |
| O=C(c1ccco1)n1c(=S)nc2ccccn21 | inactive: 0.862% | – |
| COc1ccc(-c2nnc(N)s2)cc1 | inconclusive: 30.7% [activator] | – |
| C/C=C(\CS(=O)(=O)c1ccccc1)S(=O)(=O)c1ccccc1 | inconclusive: 2.96% [activator] | – |
| COc1ccc(C2=C(N)c3ccccc3C2=O)cc1 | inconclusive: 37.5% [activator] | – |

| SMILES | activation (GFP accumulation) | Potency |
| --- | --- | --- |
| CCn1c2ccccc2c2nnc(SCCCn3c(=O)[nH]c4ccccc43)nc21 | inconclusive: 18.2% [activator] [at 9.17 µM, untreated = 0%, 10 µM MG-132 = 100%] | – |
| CCc1c(C)nc2[nH]nc(-c3ccccc3)n2c1=O | inconclusive: -4.47% [activator] | – |
| CCOc1cccc(C(=O)Nc2cccnc2)c1 | inconclusive: 8.7% [activator] | – |
| CC(C)(C)c1nn(-c2ccccc2)c2[nH]c(=O)c(CNCc3ccco3)cc12 | inconclusive: 87.7% [activator] | – |
| CS(=O)(=O)Nc1ccc(Nc2c3ccccc3nc3ccccc23)cc1 | inactive: -11.8% [at 9.17 µM, untreated = 0%, 10 µM MG-132 = 100%] | – |
| O=C(Nc1ccc(N2CCCCC2)cc1)c1ccc(F)cc1 | inactive: 5.24% | – |
| Cc1cc(NC(=O)CSc2ncnc3sc4c(c23)CCC(C)C4)no1 (stereo unspecified) | inconclusive: 32.1% [activator] | – |
| CSCCC(N=CC1=C(O)CC(C)(C)CC1=O)C(=O)O (stereo unspecified) | inconclusive: -5.99% [activator] | – |
| COc1ccc(CNC(=O)C2CCN(S(=O)(=O)N3CCOCC3)CC2)cc1 | inconclusive: 10.4% [activator] | – |
| COc1ccc2c(c1OC)C(=O)N(c1nccs1)C2 | inconclusive: 31.4% [activator] | – |
| Cc1ccc(CN(c2ccc(C(=O)N3CCOCC3)cc2)S(C)(=O)=O)cc1 | inconclusive: 31.9% [activator] | – |
| COc1ccc(-c2nc3cnc(Nc4ccccc4)nc3n(CCC#N)c2=O)cc1 | inconclusive: 103% [activator] | – |
| CCC(C)c1c(O)nc(SCC(=O)N2CCOCC2)[nH]c1=O (stereo unspecified) | inconclusive: -1.64% [activator] | – |
| CCN1CCN(c2ccc(NC(=O)COc3ccccc3Cl)cc2)CC1 | inactive: 8.73% | – |
| O=c1cc(-c2ccccc2)c2ccccc2[nH]1 | inactive: -4.25% | – |
| COC(=O)CCCCC(=O)C1C(=O)CC(C)(C)C(C(=O)OC)C1=O (stereo unspecified) | inconclusive: 14.5% [activator] | – |
| Cc1nn(-c2ccccc2)c(C)c1NC(=O)Cc1cccs1 | inconclusive: 32.4% [activator] | – |
| O=S(=O)(c1ccc(F)cc1)N1CCC(N2CCCC2)CC1 | inconclusive: -2.86% [activator] | – |
| CC(C)(C)P(=O)(CO)c1ccccc1 (stereo unspecified) | inconclusive: 30.6% [activator] | – |
| COC(=O)c1ccc(NC(=O)COc2ccccc2OC)cc1 | inconclusive: -5.36% [activator] | – |
| c1ccc(CCc2nn3c(Cn4cnc5ccccc54)nnc3s2)cc1 | inactive: 16% | – |
| Cc1ccnc(Nc2nc(-c3c(C)nc4sccn34)cs2)c1 | inactive: -1.3% | – |
| CCNc1ncc2nc(-c3cc(F)cc(F)c3)c(=O)n(-c3ccc(OC)cc3)c2n1 | inconclusive: 56.9% [activator] | – |
